Assay results: patent US20260027220A1, “EPHA2 BCL-XL INHIBITOR ANTIBODY-DRUG CONJUGATES AND METHODS OF USE THEREOF” (Novartis AG, priority 2022, published 2026)

B1: G77S (antibody)
heavy: EVQLLESGGGLVQPGGSLRLSCAASGFTFSHYMMAWVRQAPGKGLEWVSRIGPSGGPTHYADSVKGRFTISRDNSKNTLYLQMNSLRAEDTAVYYCAGYDSGYDYVAVAGPAEYFQHWGQGTLVTVSSASTKGPSVFPLAPSSKSTSGGTAALGCLVKDYFPCPVTVSWNSGALTSGVHTFPAVLQSSGLYSLSSVVTVPSSSLGTQTYICNVNHKPSNTKVDKRV[not shown - human IgG1 Fc with S375C (EU numbers)]
light: DIQMTQSPSSLSASVGDRVTITCRASQSISTWLAWYQQKPGKAPKLLIYKASNLHTGVPSRFSGSGSGTEFSLTISSLQPDDFATYYCQQYNSYSRTFGQGTKVEIKRTVAAPSVFIFPPSDEQLKSGTASVVCLLNNFYPREAKVQWKVDNALQSGNSQESVTEQDSKDSTYSLSSTLTLSKADYEKHKVYACEVTHQGLSSPVTKSFNRGEC
B2: S93A (antibody)
heavy: B1 heavy
light: B1 light with S77G, S93A
B3: S72T (antibody)
heavy: B1 heavy
light: B1 light with S72T, S77G
B4: N92A (antibody)
heavy: B1 heavy
light: B1 light with S77G, N92A
B5: 3x germ (antibody)
heavy: B1 heavy
light: B1 light with S10T, S72T
B6: N92Q (antibody)
heavy: B1 heavy
light: B1 light with S77G, N92Q
B7: S10T (antibody)
heavy: B1 heavy
light: B1 light with S10T, S77G
B8: S93V (antibody)
heavy: B1 heavy
light: B1 light with S77G, S93V
B9: S93Q (antibody)
heavy: B1 heavy
light: B1 light with S77G, S93Q

Molecular target: T1, cyno EphA2 ectodomain (Macaca fascicularis, UniProt Q1KL86)
T1 construct: The soluble human, mouse and cyno EphA2 ectodomain flowed over both flow cells
Experiment: Biacore KD determination, cyno EphA2
Conditions: SPR Biacore 8k, anti-Fab capture, 37° C., 1:1 binding model
Protocol: (§1) Kinetic rate constants were determined via SPR using the Biacore 8k instrument (Cytiva, formerly GE Healthcare Lifesciences) as described below.
(§2) A human Fab capture method was utilized in order to determine kinetics for the antibodies. The anti-Fab antibody used was provided in the Human Fab capture kit (Cytiva, cat #28958325) and was immobilized on all 8 channels of CM5 sensor chip according to the manufacturer's instructions. Each channel has two flow cells. The reference flow cell contained only immobilized anti-Fab, whereas the reaction flow cell captured anti-EphA2 IgG through anti-Fab. HBS-EP+ Buffer, pH 7.6 was used as the running buffer. The soluble human, mouse and cyno EphA2 ectodomain flowed over both flow cells on 8 channels. The EphA2 ectodomain concentration started at 50 nM and was serially diluted at one part to one part (1:1) in the running buffer for six concentrations. The analysis chamber was kept at 37° C. Regeneration was performed at the end of each sample washing with the solution of 10 mM Glycine-HCl, pH 2.1 provided in the kit.
(§3) The data were analysed using the Biacore Insight Evaluation Software. Double reference subtraction was completed to generate the final data. The raw data was fitted to a 1:1 binding model, with parameter(s) Rmax set to local.

T1 sequence (Q1KL86 25-537 limits assumed): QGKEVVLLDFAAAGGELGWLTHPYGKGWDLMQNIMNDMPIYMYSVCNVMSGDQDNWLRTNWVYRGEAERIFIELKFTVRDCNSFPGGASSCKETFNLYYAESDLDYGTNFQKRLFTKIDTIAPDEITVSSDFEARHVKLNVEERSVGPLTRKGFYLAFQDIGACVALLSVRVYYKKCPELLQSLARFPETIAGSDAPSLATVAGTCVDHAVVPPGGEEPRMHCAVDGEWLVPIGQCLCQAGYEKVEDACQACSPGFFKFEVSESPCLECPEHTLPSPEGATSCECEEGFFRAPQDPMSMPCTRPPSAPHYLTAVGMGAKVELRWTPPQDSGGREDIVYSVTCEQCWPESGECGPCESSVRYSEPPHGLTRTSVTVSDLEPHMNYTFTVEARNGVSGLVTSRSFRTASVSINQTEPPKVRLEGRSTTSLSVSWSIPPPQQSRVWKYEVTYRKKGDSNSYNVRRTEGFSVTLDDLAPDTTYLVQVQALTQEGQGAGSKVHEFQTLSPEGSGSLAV

ka [M⁻¹ s⁻¹]	kd [s⁻¹]	KD (M)	Molecule
661000	0.147	–	B1
697000	0.181	–	B2
737000	0.17	–	B3
–	–	no binding	B4
886000	0.121	–	B5
313000	0.0719	–	B6
531000	0.104	–	B7
428000	0.105	–	B8
1.24e+06	0.338	–	B9

Molecular target: T2, mouse EphA2 ectodomain (Mus musculus, UniProt Q03145)
T2 construct: The soluble human, mouse and cyno EphA2 ectodomain flowed over both flow cells
Experiment: Biacore KD determination, mouse EphA2
Conditions: SPR Biacore 8k, anti-Fab capture, 37° C., 1:1 binding model
Protocol: as §1
as §2, with “The anti-Fab antibody used was provided in the Human Fab capture kit (Cytiva, cat #28958325) and was immobilized on all 8 channels of CM5 sensor chip according to the manufacturer's instructions.” left out
as §3

T2 sequence (Q03145 26-538 limits assumed): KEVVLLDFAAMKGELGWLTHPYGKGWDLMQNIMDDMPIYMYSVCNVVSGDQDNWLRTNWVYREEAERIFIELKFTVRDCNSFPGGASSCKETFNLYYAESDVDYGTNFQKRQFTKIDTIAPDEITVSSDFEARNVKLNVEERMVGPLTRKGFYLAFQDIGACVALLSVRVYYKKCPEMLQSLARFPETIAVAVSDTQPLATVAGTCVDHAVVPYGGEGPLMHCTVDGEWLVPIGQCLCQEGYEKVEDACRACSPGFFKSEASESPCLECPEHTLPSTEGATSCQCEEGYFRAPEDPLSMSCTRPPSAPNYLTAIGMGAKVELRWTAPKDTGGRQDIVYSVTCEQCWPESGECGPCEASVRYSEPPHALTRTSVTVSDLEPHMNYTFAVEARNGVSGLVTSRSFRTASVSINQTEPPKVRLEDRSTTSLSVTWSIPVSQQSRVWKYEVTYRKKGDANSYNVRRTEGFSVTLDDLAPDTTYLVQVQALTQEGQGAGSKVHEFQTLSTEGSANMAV

ka [M⁻¹ s⁻¹]	kd [s⁻¹]	KD (M)	Molecule
163000	0.0603	–	B1
182000	0.0625	–	B2
136000	0.0512	–	B3
–	–	no binding	B4
193000	0.0635	–	B5
172000	0.0661	–	B6
178000	0.0508	–	B8
165000	0.0552	–	B9

Molecular target: T3, human EphA2 ectodomain (Homo sapiens, UniProt P29317)
T3 construct: The soluble human, mouse and cyno EphA2 ectodomain flowed over both flow cells
Experiment: Biacore KD determination, human EphA2
Conditions: SPR Biacore 8k, anti-Fab capture, 37° C., 1:1 binding model
Protocol: as §1
as §2, with “The anti-Fab antibody used was provided in the Human Fab capture kit (Cytiva, cat #28958325) and was immobilized on all 8 channels of CM5 sensor chip according to the manufacturer's instructions.” left out
as §3

T3 sequence (P29317 24-537 limits assumed): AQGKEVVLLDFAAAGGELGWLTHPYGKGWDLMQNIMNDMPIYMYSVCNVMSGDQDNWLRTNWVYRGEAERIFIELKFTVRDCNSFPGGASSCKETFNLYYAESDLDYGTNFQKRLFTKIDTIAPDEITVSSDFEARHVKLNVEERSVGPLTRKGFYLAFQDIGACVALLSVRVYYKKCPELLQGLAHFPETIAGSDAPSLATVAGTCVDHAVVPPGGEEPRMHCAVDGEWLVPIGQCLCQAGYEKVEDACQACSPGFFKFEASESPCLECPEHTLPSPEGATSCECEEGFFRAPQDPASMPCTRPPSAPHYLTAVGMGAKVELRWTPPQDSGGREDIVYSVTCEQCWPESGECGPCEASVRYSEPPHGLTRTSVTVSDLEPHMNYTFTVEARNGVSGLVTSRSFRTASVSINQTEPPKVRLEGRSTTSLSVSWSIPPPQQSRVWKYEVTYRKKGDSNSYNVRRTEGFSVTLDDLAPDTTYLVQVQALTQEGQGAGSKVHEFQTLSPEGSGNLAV

ka [M⁻¹ s⁻¹]	kd [s⁻¹]	KD (M)	Molecule
260000	0.0483	–	B1
493000	0.131	–	B2
240000	0.0518	–	B3
–	–	no binding	B4
250000	0.0996	–	B5
271000	0.0531	–	B6
296000	0.0792	–	B8
268000	0.0635	–	B9

Residue numbers refer to the chain shown, from its start. Numbers in names are those of the source.
